Reference: the supplement of paper PMC4967469

Key:
Test in all cases: Viability of human cancer cell lines after 72 h of drug (GDSC screen)
XAV 939 = compound: Oc1nc(-c2ccc(C(F)(F)F)cc2)nc2c1CSCC2 [XAV 939]; conditions: top dose 5 µM; top dose inferred
Description: (§1)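 Human cancer cell lines in 384-well plates, medium with 10% serum, drug for 72 h over a 256-fold dose range (nine 2-fold or five 4-fold steps up to the top dose). Adherent lines were fixed and stained with the nucleic acid dye Syto60, suspension lines read with resazurin; signal relative to control wells, capped at 0 and 100%. One two-parameter sigmoid per drug and line, fitted in a mixed model over all curves with the slope shared within a line.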

GSK-650394 = compound: O=C(O)c1ccc(-c2c[nH]c3ncc(-c4ccccc4)cc23)cc1C1CCCC1 [GSK-650394]; conditions: top dose 16 µM; top dose inferred
Description: as §1

NPK76-II-72-1 = compound: COc1cc(C(=O)NC2CCN(C)CC2)ccc1Nc1ncc2c(n1)N(C1CCCC1)C(C)CC(=O)N2C [NPK76-II-72-1]; conditions: top dose 10.24 µM; top dose inferred
Description: as §1

BMS-345541 = compound: Cc1ccc2nc(NCCN)c3ncc(C)n3c2c1 [BMS-345541]; conditions: top dose 16 µM
Description: as §1

AZD7762 = compound: NC(=O)Nc1cc(-c2cccc(F)c2)sc1C(=O)N[C@H]1CCCNC1 [AZD7762]; conditions: top dose 2 µM
Description: as §1

Bexarotene = compound: C=C(c1ccc(C(=O)O)cc1)c1cc2c(cc1C)C(C)(C)CCC2(C)C [Bexarotene]; conditions: top dose 8 µM
Description: as §1

Etoposide = compound: COc1cc([C@@H]2c3cc4c(cc3[C@@H](O[C@@H]3O[C@@H]5CO[C@@H](C)O[C@H]5[C@H](O)[C@H]3O)[C@H]3COC(=O)[C@H]23)OCO4)cc(OC)c1O [Etoposide]; conditions: top dose 16 µM
Description: as §1

YK 4-279 = compound: COc1ccc(C(=O)CC2(O)C(=O)Nc3c(Cl)ccc(Cl)c32)cc1 [YK 4-279]; conditions: top dose 10 µM
Description: as §1

Cell Line | AUC (XAV 939) | IC50 (XAV 939) [µM] | AUC (GSK-650394) | IC50 (GSK-650394) [µM] | AUC (NPK76-II-72-1) | IC50 (NPK76-II-72-1) [µM] | AUC (BMS-345541) | IC50 (BMS-345541) [µM] | AUC (AZD7762) | IC50 (AZD7762) [µM] | AUC (Bexarotene) | IC50 (Bexarotene) [µM] | AUC (Etoposide) | IC50 (Etoposide) [µM] | AUC (YK 4-279) | IC50 (YK 4-279) [µM]
EC-GI-10 (oesophagus, adherent) | 0.882 | > 5 | 0.983 | > 16 | 0.848 | 7.52 | 0.924 | > 16 | 0.876 | 1.96 | 0.987 | > 8 | 0.975 | > 16 | 0.654 | 1.67
ECC10 (stomach, suspension) | 0.983 | > 5 | 0.944 | > 16 | 0.945 | > 10.2 | 0.834 | 11.1 | 0.82 | 1.22 | 0.975 | > 8 | 0.683 | 3.34 | 0.617 | 1.33
EFM-19 (breast, adherent) | 0.974 | > 5 | 0.826 | > 16 | 0.896 | > 10.2 | 0.857 | > 16 | 0.838 | > 2 | 0.863 | > 8 | 0.498 | 0.984 | 0.764 | 5.62
EFM-192A (breast, adherent) | 0.984 | > 5 | 0.493 | 0.956 | 0.914 | > 10.2 | 0.925 | > 16 | 0.959 | > 2 | 0.901 | > 8 | 0.479 | 0.873 | 0.761 | 3.91
EFO-21 (ovary, adherent) | 0.959 | > 5 | 0.939 | > 16 | 0.884 | > 10.2 | 0.784 | 10.2 | 0.837 | > 2 | 0.966 | > 8 | 0.838 | > 16 | 0.883 | > 10
EFO-27 (ovary, adherent) | 0.976 | > 5 | 0.795 | 9.62 | 0.923 | > 10.2 | 0.846 | > 16 | 0.691 | 0.496 | 0.945 | > 8 | 0.678 | 3.59 | 0.789 | 5.69
EGI-1 (biliary tract, adherent) | 0.92 | > 5 | 0.888 | > 16 | 0.972 | > 10.2 | 0.894 | > 16 | 0.834 | 1.9 | 0.97 | > 8 | 0.62 | 2.36 | 0.843 | > 10
EJM (lymphoid neoplasm, semi-adherent) | 0.987 | > 5 | 0.983 | > 16 | 0.791 | 3.82 | 0.884 | 12.5 | 0.58 | 0.199 | 0.986 | > 8 | 0.846 | 8.98 | 0.877 | 7.37
EKVX (lung adenocarcinoma, adherent) | 0.811 | > 5 | 0.934 | > 16 | 0.956 | > 10.2 | 0.927 | > 16 | 0.826 | > 2 | 0.568 | 0.95 | 0.946 | > 16 | 0.963 | > 10
EM-2 (chronic myeloid leukaemia, suspension) | 0.951 | > 5 | 0.946 | > 16 | 0.585 | 1.13 | 0.809 | 9.69 | 0.486 | 0.114 | 0.893 | > 8 | 0.586 | 1.77 | 0.676 | 2.08
EN (endometrium, adherent) | 0.982 | > 5 | 0.928 | > 16 | 0.941 | > 10.2 | 0.89 | > 16 | 0.633 | 0.321 | 0.955 | > 8 | 0.947 | > 16 | 0.822 | 7.97
EPLC-272H (lung squamous cell carcinoma, adherent) | 0.933 | > 5 | 0.693 | 3.76 | 0.667 | 2 | 0.813 | 10.1 | 0.559 | 0.185 | 0.98 | > 8 | 0.603 | 2 | 0.622 | 1.41
ES5 (Ewing sarcoma, adherent) | 0.976 | > 5 | 0.979 | > 16 | 0.466 | 0.509 | 0.719 | 4.65 | 0.548 | 0.173 | 0.982 | > 8 | 0.815 | 10.4 | 0.66 | 1.87
ES7 (Ewing sarcoma, adherent) | 0.953 | > 5 | 0.982 | > 16 | 0.52 | 0.725 | 0.71 | 3.99 | 0.558 | 0.181 | 0.886 | > 8 | 0.457 | 0.761 | 0.616 | 1.31
ES-2 (ovary, adherent) | 0.99 | > 5 | 0.987 | > 16 | 0.803 | 4.37 | 0.8 | 6.7 | 0.422 | 0.0788 | 0.989 | > 8 | 0.898 | 15.8 | 0.889 | 8.97
ETK-1 (biliary tract, adherent) | 0.794 | 2.66 | 0.736 | 5.22 | 0.788 | 5.17 | 0.853 | 15.2 | 0.744 | 0.697 | 0.938 | > 8 | 0.663 | 3.04 | 0.64 | 1.61
EW-1 (Ewing sarcoma, semi-adherent) | 0.988 | > 5 | 0.929 | > 16 | 0.433 | 0.428 | 0.815 | 7.89 | 0.599 | 0.229 | 0.974 | > 8 | 0.574 | 1.57 | 0.679 | 1.88

A lower IC50 marks a more sensitive line; where the fit passes the top or lowest dose, that dose stands as a limit. The AUC spans the tested range (256-fold, ending at the top dose) of the same fit; it is 1 without any effect and falls as sensitivity rises. For some assays here: An inferred top dose comes from the curve model; the source does not state it.
